Test results: article PMC12136788
Some of the results follow.

T1: UNK ZnF1-6 (called full-length) (human, UniProt Q9C0B0 30-357)
T1 sequence: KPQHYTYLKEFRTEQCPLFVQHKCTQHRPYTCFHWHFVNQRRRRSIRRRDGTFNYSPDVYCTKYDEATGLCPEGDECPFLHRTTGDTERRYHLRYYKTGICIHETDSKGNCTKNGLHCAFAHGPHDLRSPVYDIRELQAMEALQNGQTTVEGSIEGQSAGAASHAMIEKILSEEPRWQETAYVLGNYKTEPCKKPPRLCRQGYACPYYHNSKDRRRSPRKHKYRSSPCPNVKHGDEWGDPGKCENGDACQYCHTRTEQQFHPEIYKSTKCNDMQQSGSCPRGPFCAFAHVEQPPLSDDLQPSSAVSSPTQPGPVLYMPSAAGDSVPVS

B1: chr9:6012816:6012917:-|CDS|ENSG00000137040|unk|FALSE|unique (ssRNA)
RNA: GGGAGUUCUACAGUCCGACGAUCGGGAUUGUGCAUAUUUGAUGACAUCAUAGAGCACUGCAGUCCAACUUCAUUUAAAUAUGUAGAAUAUUUUCGGUGGCCAAUGCUACUAAAUAUGCGAGAUAACAACCCUGAAGUCAGGCACAACAGAGGAUUGAGCAUCA
B2: chr10:43184366:43184487:+|3pUTR|ENSG00000169826|unk|FALSE|bound_elsewhere (ssRNA)
RNA: GGGAGUUCUACAGUCCGACGAUCUAGUUUAUUUGAGCCAGCUCUAUCAGGGUCUUCCCAUGGUGGUUCAGAAUAGAUGAGCAUAGCAUGGUUUUGUUUGUUUUUGCUUUCAAUUUUCUAAUUUGGCAUGGAUCCAUAUGUAUUCAACAGAGGAUUGAGCAUCA
B3: chr12:65247554:65247656:+|3pUTR|ENSG00000174106|unk|FALSE|unique (ssRNA)
RNA: GGGAGUUCUACAGUCCGACGAUCCAGUAUUUAAUUUGUUUCAGUAAACUUACUUUAUUACUGUUUAUGAUUUCAGAUAAAAAUAGUUGCUGAGUAAAUUUUACUUGUAAUCUACAAUUGGCUUUUUAAAAAUAACCUGUUGAUCAACAGAGGAUUGAGCAUCA
B4: chr10:92030471:92030572:+|3pUTR|ENSG00000095564|unk|FALSE|unique (ssRNA)
RNA: GGGAGUUCUACAGUCCGACGAUCUAUUUUUUUAUUAACUAUUUAUUUGCUAGUUCCAUAAACCAGCUCUUUAACAUAGCUUAUAGUAAUUGAUAUUUUCUUAGAAUAAGUACAGAGCAAUAUAUCAUUAAAGGGCUAUGAAGGCAACAGAGGAUUGAGCAUCA
B5: ENSG00000124766:be:win_3351|3pUTR|ENSG00000124766|bound_else_gene|NA|bound_elsewhere_windowed (ssRNA)
RNA: GGGAGUUCUACAGUCCGACGAUCCCACCCUCCGGCCCCCGUCUUGUAAAAAGGGGAGGAGAAUUAGCCAAACACUGUAAGCUUUUAAGAAAAACAAAGUUUUAAACGAAAUACUGCUCUGUCCAGAGGCUUUAAAACUGGUGCCAACAGAGGAUUGAGCAUCA
B6: ENSG00000151612:stop:overlap|stop_codon|ENSG00000151612|stop_codon|NA|stop_codon (ssRNA)
RNA: GGGAGUUCUACAGUCCGACGAUCCAGGCCUGUUGGAGAAGGAAGCCAGCAGUGAGGGGGAUUGCAAAGUAGAGAGAGGUUGGUAGAACUGUGGACUGUGAAGAGAUCGAGAAUAGCACAGUUAACUAGGCAUUUGCCUUCGGCCAACAGAGGAUUGAGCAUCA
B7: ENSG00000198589:be:win_7151|CDS|ENSG00000198589|bound_else_gene|NA|bound_elsewhere_windowed (ssRNA)
RNA: GGGAGUUCUACAGUCCGACGAUCCUUGGGCCAAAACCUCAGAAGAAUUUGUUCACAUAAACAGAUUGGCCCUGGAGAGUGAAUUUGUUUCCUGCCAGCUUCACCAAUGGAUUGAUCUCAUUUUUGGCUAUAAACAGCAAGGACCAACAGAGGAUUGAGCAUCA
B8: chr8:88167829:88167930:-|CDS|ENSG00000156103|msi1|total|mutant (ssRNA)
RNA: GGGAGUUCUACAGUCCGACGAUCCUUUGAUGUGUGGCAGAAUGUAACUCCUCUGACAUUUGAAGAAGUUCCCUACAGUGAAUCCGAAAAUGGCAAACGUGAUGUGGAUAUAACCAUUAUUUUUGCAUCUGGUUUCCAUGGGGACAACAGAGGAUUGAGCAUCA
B9: chr1:32364632:32368550:-|three_prime_utr|ENSG00000160058|control|control|control (ssRNA)
RNA: GGGAGUUCUACAGUCCGACGAUCGCUCAGACCCACAACAUUGGUCAUCAGCAGGCUGCACUUUUCCUCAGUUCCAGGGUGGAUAGAGGGUCAAGUUCUUGACCUUAGCUCUGUAUCAAAAUUGCCUGAGAAACUGCUUAAGAACAACAGAGGAUUGAGCAUCA
B10: chr10:24620413:24620514:-|CDS|ENSG00000107863|msi1|total|mutant (ssRNA)
RNA: GGGAGUUCUACAGUCCGACGAUCGUGCUAAUGAAGUAUUGUCCAAGAAGUGCAUCUCAAGGAGCACUGACGUCUCCAUCUGUCCGUUUCCGUAAUCACCGAACUCGUUCAUGGGAUUAUAUUGAGGGACAGGAUGAAACCUUACAACAGAGGAUUGAGCAUCA
B11: chr8:38210141:38210254:+|CDS|ENSG00000156735|unk|FALSE|unique (ssRNA)
RNA: GGGAGUUCUACAGUCCGACGAUCGCUGAGCCUCAGCUGUAUGGUAAUGCCACCAGUGACCAUCCCAACAAUCAAGAUCAAAGUAGCAGUCUUCCUGAAGAAUGUGUACCUUCAGAUGAAAGUACUCCUCCGAGUAUUAAAAAACAACAGAGGAUUGAGCAUCA
B12: ENSG00000124766:be:win_2251|3pUTR|ENSG00000124766|bound_else_gene|NA|bound_elsewhere_windowed (ssRNA)
RNA: GGGAGUUCUACAGUCCGACGAUCACGGUCAAACUGAAAUGGAUUUGCACGUUGGGGAGCUGGCGGCGGCGGCUGCUGGGCCUCCGCCUUCUUUUCUACGUGAAAUCAGUGAGGUGAGACUUCCCAGACCCCGGAGGCGUGGAGCAACAGAGGAUUGAGCAUCA
B13: chr22:28629602:28629705:-|CDS|ENSG00000100154|unk|total|mutant (ssRNA)
RNA: GGGAGUUCUACAGUCCGACGAUCAUUGUUCUGUAUAAUGAAGCCCUGGCUGUUGACCCUCAGAACUGCAUCUUAUACAGCAACCGAUCUGCAGCCUACAUGAAAAUCCAGCAGUAUGACAAGGCACUGGAUGAUGCAAUCAAACAACAGAGGAUUGAGCAUCA
B14: chr5:154898482:154898583:-|CDS|ENSG00000082516|unk|total|mutant (ssRNA)
RNA: GGGAGUUCUACAGUCCGACGAUCUUUGGCCAAAAAGGGGGAUGCGGCAUCACUCCGAACGGCUGCAGAGUUGGCUGCCAUCGCCGGAGAGGAUGAGUUGUCUGCUUCCCUGGCUCUCAGAUGUGCCCAAGAGCUGCUUCUGGCCAACAGAGGAUUGAGCAUCA

Target: T1, UNK ZnF1-6 (called full-length)
Assay: nsRBNS (natural sequence RNA bind-n-seq); RBNS binding buffer (assumed for nsRBNS): 25 mM Tris pH 7.5, 150 mM KCl, 3 mM MgCl2, 0.01% Triton X-100, 500 ug/ml BSA, 20 U/ml SUPERase-In, 4 C; UNK is unkempt and MSI1 is Musashi-1; names of the RNAs are library labels; protein concentration not given here; high values mean tight binding

| Binder | binding signal [enrichment R] |
| --- | --- |
| B1 | 0.424 |
| B2 | 3.79 |
| B3 | 0.413 |
| B4 | 34.3 |
| B5 | 0.901 |
| B6 | 3.25 |
| B7 | 0.468 |
| B8 | 0.368 |
| B9 | 0.834 |
| B10 | 0.335 |
| B11 | 0.486 |
| B12 | 0.775 |
| B13 | 0.409 |
| B14 | 0.652 |
